Results: US20150353645A1
Substitutions are numbered along the chain they refer to.

B1: human anti-GD2 monoclonal antibody 1B7 (antibody, human IgG1, V domains shown)
VH: QVQLVESGAEVKKPGASVKVSCKASGYTFTSYAIHWVRQAPGQRLEWMGWINAGNGYRKYSQKFQGRVTVTRDTSASTAYMELSSLRSEDTAVYYCARFEGGMVTAMDFWGQGTLVTVSS
VL: [skipping about 100 residues]FGPGTKVDIK
B2: human anti-GD2 monoclonal antibody 2H12 (antibody, human IgG1, V domains shown)
VH: B1 VH with Q1E, V5L, F109Y
VL: [skipping about 100 residues]FGPGIKVDIK
B3: human anti-GD2 monoclonal antibody 2F7 (antibody, human IgG1, V domains shown)
VH: EVQLLESGAEVKKPGASVKVSCKASGYIFSRYAIHWVRQAPGQGLEWMGWINPFNGFTKYSQKFQGRVALTRDRSATTGYMELSSLTSEDTAVYYCARLESNKFYAFDIWGQGTMVTVSS
VL: EIVMTQSPLSLPVTPGEPASIS[skipping about 80 residues]FGQGTKVEIK

How the values were obtained:
[1] = molecular target: MUC1 peptide-biotin (cat#353951, American Peptide Company); assay: ELISA at 2 ug/ml mAb, MUC1 peptide-biotin on NeutrAvidin; PBS background 0.08
[2] = molecular target: MUC1 peptide-biotin (cat#353951, American Peptide Company); assay: ELISA at 2 ug/ml mAb, MUC1 peptide-biotin on NeutrAvidin; PBS background 0.10

Row | Binder | ELISA signal (unit not given) [1] | ELISA signal (unit not given) [2]
1 | B1 | 0.08 | –
2 | B2 | 0.08 | –
3 | B3 | – | 0.11
